Data as given in ChEMBL document CHEMBL4888484, “Replenishing the malaria drug discovery pipeline: Screening and hit evaluation of the MMV Hit Generation Library 1 (HGL1) against asexual blood stage Plasmodium falciparum ,using a nano luciferase reporter read-out” (2022).
In all, about 4,800 compounds went through this assay and about 420 (8.8%) showed an effect of 50% or more. This is one part of the list.

Tested on: Plasmodium falciparum
Assay: Confirmatory screen in NF54 nanoGlo assay, in single point, at 2uM, 72h
Format: functional, Erythrocyte
Conditions: timepoint 72 hour

% Inhibition, -4%:
Cc1nn(C)c(Cl)c1NC(=O)OCc1ccc(F)cc1
O=C(c1cnc2ccccc2n1)N1CCCC1
Nc1nc(-c2ccc(Br)cc2)nc(-c2ccc(Br)cc2)n1
Cc1cc(-c2csc(CN3C(=O)CNC3=O)n2)cc(C)c1F
COc1ccccc1[C@H]1CC(O)=Nc2c1ncn2-c1cc(F)cc(F)c1
COc1ccnc(N2CCc3nn(C(C)C)c(=O)cc3C2)n1
Cc1c(Cl)c(C(F)(F)F)nn1[C@@H](C)C(=O)NC1CCN(C(C)C)CC1
Cc1nc2cc3c(cc2n1CC(=O)Nc1ccc(Cl)cc1)OCCCO3

% Inhibition, 3%:
Cc1cccn(Cc2nnnn2C2CC2)c1=O
CC1(C)C2CCC13CS(=O)(=O)N=C3C2 (configuration not stated)
COc1ccc(CCNC(=O)Cn2c(=O)ncc3cc(S(=O)(=O)N4CCCC[C@@H]4C)ccc32)cc1OC
CN(CC(=O)Nc1ccccc1C(F)(F)F)C1CNC1
CC(=O)c1cn(CC(=O)N2CCNC(=O)C2)c2ccccc12
COc1cc(Cl)cc2c1OC=CC(C(=O)Nc1ccc(C)cc1)=C2
CN1CCC(=O)Nc2cc(C(=O)NCCS(=O)(=O)NCC3CCC3)ccc21

% Inhibition, -1%:
Cc1cc2c(cc1C)[C@H](C(=O)Nc1cc(C(N)=O)ccc1Cl)CO2
O=C(Nc1nc2ccc(F)cc2s1)c1cccc2c(Br)cccc12
O=C(O)[C@H](Cc1ccccc1)N(C(=O)c1ccncc1)C1CC1
CCO[C@@H](C)C(=O)Nc1n[nH]c(Cc2cccc(F)c2)n1
Cc1ccc(F)c(N2CCC(NS(=O)(=O)c3ccc(F)cc3Br)CC2)c1

% Inhibition, 34%:
Cc1cc(OCCOCCNCCN)cc(C(C)C)c1

% Inhibition, 2%:
Cc1ccc([C@@H]2CC(=O)Nc3nc(N4CCN(CCO)CC4)nc(O)c32)cc1
O=C(NC(Cn1ccccc1=O)c1ccccc1)C1CCOC1 (configuration not stated)
Cc1cc(C(=O)NC(C)C)nc(N(C)C)n1
CC(=O)NCC(=O)N1CCC(OC(C)(C)C)CC1
O=C(c1ccc(COc2ccc3ccccc3c2)o1)N1CCN(c2ccccn2)CC1
CC(=O)c1cccc(S(=O)(=O)N2CCN(C(=O)c3ccc4c(c3)CCC4)CC2)c1
CC1=NN(S(=O)(=O)c2ccc(F)cc2)C(=O)c2ccccc2O1

% Inhibition, 18%:
O=C(c1ccccc1Cl)N1CCC[C@H](n2cnc3ccccc3c2=O)C1

% Inhibition, 1%:
COc1ccc(CCN2C(=O)COCC2=O)cc1OC
Cc1nc2cccnc2n1-c1cc(C(=O)NCCc2ccccc2)ccc1Cl
COc1ccc(N2CCN(C(=O)CN3C(=O)COc4cc(C)ccc43)CC2)cc1
CC1(C)CCc2nnc(COc3ccc(C#N)cc3)n2C1
Cc1cc(OC(F)F)c(C(=O)NC(C)CCC2CCCO2)s1 (configuration not stated)
CC1CC1C(=O)Nc1cc(F)ccc1NC(=O)c1ccccn1 (configuration not stated)
Cc1nn(C)c(C)c1CCCN[C@@H](C)c1cccc(O)c1

% Inhibition, -2%:
Cc1cc(NC(=O)c2occc2-c2ccccc2)sn1
CO[C@@H](CNC(=O)c1nc2n(n1)-c1ccccc1S(=O)(=O)N2)c1ccccc1
Cc1[nH]c2ccnn2c(=O)c1CC(=O)N1CC[C@H](C)c2cccc(O)c21
COc1ccc(-c2nc(N)s[n+]2-c2ccccc2)cc1
c1cnc(N2CCOCC2)c(CNc2cnc3ccccc3n2)c1

% Inhibition, 90%:
COc1ccc(-c2c(C(F)(F)F)n[nH]c2-c2ccc(OCc3ccccc3F)cc2O)cc1

% Inhibition, -3%:
Cc1noc(Cn2c(=O)c3ccccc3n(CC(=O)Nc3cccc(Cl)c3C)c2=O)n1
Cc1cc(F)ccc1N1CCC[C@H](NC(=O)c2csnc2C)C1=O
O=c1cc(-c2ccccc2F)[nH]c2cc3c(cc12)OCO3
O=C(NC1CCCC1)N1CCC2(CC1)C[C@@H](OCc1ccccc1)CCO2

% Inhibition, -17%:
CCc1nnc2ccc(S(=O)(=O)N(CC#N)c3ccccc3)cn12

% Inhibition, -22%:
COc1ccc([C@H](C)NC(=O)/C(=C/c2ccccc2Cl)c2ccccc2)cc1

% Inhibition, -16%:
Cn1cc(C(=O)NCCOc2ccc3ccccc3n2)cn1
CC(=O)N1CCN(c2nc3c(s2)C[C@@H](C(=O)NCc2ccccc2F)CC3)CC1

% Inhibition, 9%:
COc1ccc(NC(=O)Cn2c(=O)n(CCc3cccs3)c(=O)c3ccccc32)cc1Cl
CC(C)NC(=O)N(CC(=O)N1CCn2cccc2[C@H]1c1cccc(F)c1)C1CC1

% Inhibition, -8%:
CC[C@@H](CCNS(=O)(=O)c1cn(C(F)F)nc1C)n1ccc(C(F)(F)F)n1
COc1ccccc1C1CC(=O)Nc2nc(N3CC(C)CC(C)C3)nc(O)c21 (configuration not stated)
CC[C@H]1Cn2c(C(=O)N3CCN(c4ccccn4)CC3)cc3c(Cl)ccc(c32)O1

% Inhibition, -12%:
Cc1nnc(Cn2nnc(C(=O)NCC3(CC(C)C)CCC3)c2C)o1
C#C[C@H](C)N(C)Cc1c[nH]c(C(=O)OC)c1
CCC(=O)Nc1cc(Br)c(N)c(Br)c1

% Inhibition, -14%:
Cc1ccc(-c2cc3ncc(S(=O)(=O)c4ccccc4)c(-c4cccs4)n3n2)cc1
CCN1CCN(c2nc3ncn(CC(=O)NC(C)C)c(=O)c3s2)CC1
Cn1nc2n(c1=O)CCN(S(=O)(=O)c1cccc3cccnc13)CC2

% Inhibition, -11%:
FC(F)(F)c1nnc(NCc2cncs2)s1
C[C@H]1CN(C(=O)CNc2ccccc2-c2ccccc2)CCO1
CCN(C)S(=O)(=O)N1CCN(Cc2c(C)nc3n2CCCC3)CC1
Clc1ccc(CNCCc2c[nH]cn2)cc1

% Inhibition, 44%:
FC(F)Oc1ccc(-c2c[n+](-c3cccc(C(F)(F)F)c3)c3n2CCCCC3)cc1

% Inhibition, 4%:
O=C(N[C@H]1C[C@@H]2C[C@H]1CN2C(=O)c1ccc(C(F)(F)F)s1)c1cccnc1
O=C(CNC(=O)c1ccc(Cl)cc1)Nc1ccc2[nH]c(=O)[nH]c2c1
CN(Cc1nc2ccccc2c(=O)[nH]1)C(=O)c1ccc(N2CCCC2=O)cc1
COC(=O)C1=C(C(=O)OC)SC(=C2C(=S)C(C)(C)N(C(=O)c3cccnc3)c3c(C)cc(C)cc32)S1

% Inhibition, -20%:
Cc1ccc(C(=O)N[C@@H](C)CCc2ccccc2)cc1S(=O)(=O)N1CCN(C)CC1

% Inhibition, -9%:
O=C(NCCc1cccs1)c1cnn2c(-c3ccc4c(c3)OCO4)ccnc12
Cc1ccc(-c2nn(Cn3nc(C)c(Cl)c3C)c(-c3ccc(C)cc3)c2Br)cc1
O=C(O)C1c2ccccc2C(=O)N(C2CCCCC2)C1c1ccc(Cl)cc1 (configuration not stated)
Cc1c(Br)c(C)n(NC(=O)c2cnn(Cc3ccccc3)c2)c(=O)c1C#N
CC(C1Cc2ccccc2O1)N(C)C(=O)c1n[nH]c2c1CCC2 (configuration not stated)
NS(=O)(=O)c1ccc(-c2noc(C3(c4cccc(F)c4)CCC3)n2)cc1
COC(=O)c1ccccc1N(C)S(=O)(=O)c1cc2c(cc1C)OCC(=O)N2

% Inhibition, 15%:
c1ccc(-c2c[nH]nc2N2CCOCC2)cc1

% Inhibition, 8%:
Cc1n[nH]c2ncc(NC(=O)c3ccc(CCC(F)(F)F)cc3)cc12

% Inhibition, -5%:
Nc1nccnc1C(=O)NCc1ccc(Cn2ccnc2)cc1

% Inhibition, 92%:
O=C(Nc1nc2cccc(Cl)c2o1)c1cccc(F)c1

% Inhibition, -13%:
O=C(c1c(F)cccc1F)N1C[C@@H]2CCCN2c2ccc(C(F)(F)F)cc21

% Inhibition, -10%:
Cc1coc(-c2ccc(C)c(NC(=O)CCN3C(=O)CCC3=O)c2)n1
O=C1C[C@H](c2nc3cc(Cl)ccc3o2)CN1c1ccc(F)cc1
Cc1ccc2nc3c(c(N)c2c1)CCCCN3C

% Inhibition, -7%:
Cc1noc(C(C)(C)NC(=O)Nc2c[nH]nc2-c2nccs2)n1
COc1ccc(S(=O)(=O)N2CC[C@@H]3[C@@H](COCCN3Cc3ccccc3)C2)cc1
Cc1ccc(C)c(NC(=O)N2CC(n3cnnc3-c3ccccc3)C2)c1
CC1OC2(OC1C)C(=O)N(C1CCOC1=O)c1ccccc12 (configuration not stated)
Cc1cc(S(=O)(=O)N(C)C[C@H](O)C(F)(F)F)sc1C

% Inhibition, -6%:
Cc1cccc(C)c1NC(=O)C1CCN(S(=O)(=O)c2c(C)nn(-c3ccccc3)c2C)CC1
Cc1ccccc1[C@H]1CCN(c2ccc(NC(=O)C3CCCC3)c(C(=O)O)c2)C1
Cc1ccccc1CNC(=O)[C@H]1CCCN(c2nc3cccnc3n(Cc3ccccc3)c2=O)C1

% Inhibition, 0%:
COc1cc(NC(=O)c2cccc3c(Br)cccc23)ccc1NC(=O)c1ccccc1Cl
Cc1cc(NC(=O)Cn2cc(F)ccc2=O)n(C)n1
O=C(CCn1nc2ccccn2c1=O)N1CC(CC(F)F)C1
COc1cccc(-c2cc3c(N4CCN(c5ccccn5)CC4)nccn3n2)c1
CCN(CC)c1nc(-c2ccccc2)c(C#N)c(N)c1C#N

% Inhibition, 6%:
O=C(Cn1c(=O)n(Cc2ccco2)c(=O)c2ccccc21)NC1CCCCC1

% Inhibition, 5%:
CC(C)(C)c1nc(Cn2cnc3ncc(Br)cc32)no1

% Inhibition, -18%:
CNC(=O)N1CCN(c2cc(C)nc(C3CC3)n2)CC1
